This is one part of the list.
How the values were obtained:
Assay in all cases: glycan array binding signal (z-score within array); higher = stronger binding
Conditions in all cases: glycan notation: IUPAC condensed, linker removed
[1] = target: Gal(b1-4)GlcNAc(b1-3)Gal(b1-4)GlcNAc(b1-2)Man(a1-3)[Gal(b1-4)GlcNAc(b1-3)Gal(b1-4)GlcNAc(b1-2)Man(a1-6)]Man(b1-4)GlcNAc(b1-4)[Fuc(a1-6)]GlcNAc
Outline: (§1)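 Negative Z-scores can be read as non-binding. The Z-score is calculated within each array and then averaged across arrays of one protein sequence at different concentrations or buffers and across linkers. Arrays, 3228 in all, were curated from the Consortium for Functional Glycomics database and kept only where the protein sequence was available.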

[2] = target: Gal(b1-4)GlcNAc(b1-3)Gal(b1-4)GlcNAc(b1-2)[Gal(b1-4)GlcNAc(b1-3)Gal(b1-4)GlcNAc(b1-6)]Man(a1-6)[Gal(b1-4)GlcNAc(b1-3)Gal(b1-4)GlcNAc(b1-2)Man(a1-3)]Man(b1-4)GlcNAc(b1-4)GlcNAc
Outline: as §1

[3] = target: Gal(b1-4)GlcNAc(b1-3)Gal(b1-4)GlcNAc(b1-2)[Gal(b1-4)GlcNAc(b1-3)Gal(b1-4)GlcNAc(b1-6)]Man(a1-6)[Gal(b1-4)GlcNAc(b1-3)Gal(b1-4)GlcNAc(b1-2)Man(a1-3)]Man(b1-4)GlcNAc(b1-4)[Fuc(a1-6)]GlcNAc
Outline: as §1

[4] = target: Gal(b1-4)GlcNAc(b1-3)Gal(b1-4)GlcNAc(b1-3)Gal(b1-4)GlcNAc
Outline: as §1

[5] = target: Gal(b1-4)GlcNAc(b1-3)Gal(b1-4)GlcNAc(b1-3)Gal(b1-4)GlcNAc(b1-2)Man(a1-3)[Gal(b1-4)GlcNAc(b1-3)Gal(b1-4)GlcNAc(b1-3)Gal(b1-4)GlcNAc(b1-2)Man(a1-6)]Man(b1-4)GlcNAc(b1-4)GlcNAc
Outline: as §1

[6] = target: Gal(b1-4)GlcNAc(b1-3)Gal(b1-4)GlcNAc(b1-3)Gal(b1-4)GlcNAc(b1-2)Man(a1-3)[Gal(b1-4)GlcNAc(b1-3)Gal(b1-4)GlcNAc(b1-3)Gal(b1-4)GlcNAc(b1-2)Man(a1-6)]Man(b1-4)GlcNAc(b1-4)[Fuc(a1-6)]GlcNAc
Outline: as §1

[7] = target: Gal(b1-4)GlcNAc(b1-3)Gal(b1-4)GlcNAc(b1-3)Gal(b1-4)GlcNAc(b1-2)[Gal(b1-4)GlcNAc(b1-3)Gal(b1-4)GlcNAc(b1-3)Gal(b1-4)GlcNAc(b1-6)]Man(a1-6)[Gal(b1-4)GlcNAc(b1-3)Gal(b1-4)GlcNAc(b1-3)Gal(b1-4)GlcNAc(b1-2)Man(a1-3)]Man(b1-4)GlcNAc(b1-4)[Fuc(a1-6)]GlcNAc
Outline: as §1

[8] = target: Gal(b1-4)GlcNAc(b1-3)Gal(b1-4)GlcNAc(b1-3)Gal(b1-4)GlcNAc(b1-3)Gal(b1-4)GlcNAc(b1-2)Man(a1-3)[Gal(b1-4)GlcNAc(b1-3)Gal(b1-4)GlcNAc(b1-3)Gal(b1-4)GlcNAc(b1-3)Gal(b1-4)GlcNAc(b1-2)Man(a1-6)]Man(b1-4)GlcNAc(b1-4)GlcNAc
Outline: as §1

[9] = target: Gal(b1-4)GlcNAc(b1-3)Gal(b1-4)GlcNAc(b1-3)Gal(b1-4)GlcNAc(b1-3)Gal(b1-4)GlcNAc(b1-2)Man(a1-3)[Gal(b1-4)GlcNAc(b1-3)Gal(b1-4)GlcNAc(b1-3)Gal(b1-4)GlcNAc(b1-3)Gal(b1-4)GlcNAc(b1-2)Man(a1-6)]Man(b1-4)GlcNAc(b1-4)[Fuc(a1-6)]GlcNAc
Outline: as §1

[10] = target: Gal(b1-4)GlcNAc(b1-3)Gal(b1-4)GlcNAc(b1-3)Gal(b1-4)GlcNAc(b1-3)Gal(b1-4)GlcNAc(b1-2)[Gal(b1-4)GlcNAc(b1-3)Gal(b1-4)GlcNAc(b1-3)Gal(b1-4)GlcNAc(b1-3)Gal(b1-4)GlcNAc(b1-6)]Man(a1-6)[Gal(b1-4)GlcNAc(b1-3)Gal(b1-4)GlcNAc(b1-3)Gal(b1-4)GlcNAc(b1-3)Gal(b1-4)GlcNAc(b1-2)Man(a1-3)]Man(b1-4)GlcNAc(b1-4)[Fuc(a1-6)]GlcNAc
Outline: as §1

[11] = target: Gal(b1-4)GlcNAc(b1-3)Gal(b1-4)GlcNAc(b1-3)Gal(b1-4)GlcNAc(b1-3)Gal(b1-4)GlcNAc(b1-3)Gal(b1-4)GlcNAc(b1-2)Man(a1-3)[Gal(b1-4)GlcNAc(b1-3)Gal(b1-4)GlcNAc(b1-3)Gal(b1-4)GlcNAc(b1-3)Gal(b1-4)GlcNAc(b1-3)Gal(b1-4)GlcNAc(b1-2)Man(a1-6)]Man(b1-4)GlcNAc(b1-4)GlcNAc
Outline: as §1

[12] = target: Gal(b1-4)GlcNAc(b1-3)Gal(b1-4)GlcNAc(b1-3)Gal(b1-4)GlcNAc(b1-3)Gal(b1-4)GlcNAc(b1-3)Gal(b1-4)GlcNAc(b1-2)Man(a1-3)[Gal(b1-4)GlcNAc(b1-3)Gal(b1-4)GlcNAc(b1-3)Gal(b1-4)GlcNAc(b1-3)Gal(b1-4)GlcNAc(b1-3)Gal(b1-4)GlcNAc(b1-2)Man(a1-6)]Man(b1-4)GlcNAc(b1-4)[Fuc(a1-6)]GlcNAc
Outline: as §1

[13] = target: Gal(b1-4)GlcNAc(b1-3)Gal(b1-4)GlcNAc(b1-3)Gal(b1-4)GlcNAc(b1-3)Gal(b1-4)GlcNAc(b1-3)Gal(b1-4)GlcNAc(b1-2)[Gal(b1-4)GlcNAc(b1-3)Gal(b1-4)GlcNAc(b1-3)Gal(b1-4)GlcNAc(b1-3)Gal(b1-4)GlcNAc(b1-3)Gal(b1-4)GlcNAc(b1-6)]Man(a1-6)[Gal(b1-4)GlcNAc(b1-3)Gal(b1-4)GlcNAc(b1-3)Gal(b1-4)GlcNAc(b1-3)Gal(b1-4)GlcNAc(b1-3)Gal(b1-4)GlcNAc(b1-2)Man(a1-3)]Man(b1-4)GlcNAc(b1-4)[Fuc(a1-6)]GlcNAc
Outline: as §1

[14] = target: Gal(b1-4)GlcNAc(b1-3)Gal(b1-4)GlcNAc(b1-3)Gal(b1-4)GlcNAc(b1-3)Gal(b1-4)GlcNAc(b1-3)Gal(b1-4)GlcNAc(b1-3)Gal(b1-4)GlcNAc(b1-2)Man(a1-3)[Gal(b1-4)GlcNAc(b1-3)Gal(b1-4)GlcNAc(b1-3)Gal(b1-4)GlcNAc(b1-3)Gal(b1-4)GlcNAc(b1-3)Gal(b1-4)GlcNAc(b1-3)Gal(b1-4)GlcNAc(b1-2)Man(a1-6)]Man(b1-4)GlcNAc(b1-4)GlcNAc
Outline: as §1

[15] = target: Gal(b1-4)GlcNAc(b1-3)Gal(b1-4)GlcNAc(b1-3)GalNAc
Outline: as §1

[16] = target: Gal(b1-4)GlcNAc(b1-3)Gal(b1-4)GlcNAc(b1-3)[Gal(b1-4)GlcNAc(b1-3)Gal(b1-4)GlcNAc(b1-6)]GalNAc
Outline: as §1

[17] = target: Gal(b1-4)GlcNAc(b1-3)Gal(b1-4)GlcNAc(b1-6)[Gal(b1-3)]GalNAc
Outline: as §1

[18] = target: Gal(b1-4)GlcNAc(b1-3)Gal(b1-4)[Fuc(a1-3)]GlcNAc(b1-3)Gal(b1-4)[Fuc(a1-3)]GlcNAc
Outline: as §1

[19] = target: Gal(b1-4)GlcNAc(b1-3)GalNAc
Outline: as §1

[20] = target: Gal(b1-4)GlcNAc(b1-3)[Fuc(a1-3)GlcNAc(b1-6)]Gal(b1-4)Glc
Outline: as §1

[21] = target: Gal(b1-4)GlcNAc(b1-3)[Gal(b1-4)GlcNAc(b1-6)]Gal(b1-4)GlcNAc
Outline: as §1

[22] = target: Gal(b1-4)GlcNAc(b1-3)[GlcNAc(b1-6)]Gal(b1-4)GlcNAc
Outline: as §1

B1: HA-11100 (Pseudomonas aeruginosa), Q02G51_PSEAB (protein)
chain: QFNPNEIKISQQGKTTLIDQSTQRAIINWKGFDVSADEAVRFNQPGVTSSTLNRVTAGQESVIAGRISAPGQVIIYNSNGVVFSGSAKVDVGSLITTTANISDEHFRQGKLIFDQPGNPDARIVNDGSISVAEKGLAAFVAPSVANNGVINARLGTVAMAAGNAATIDLYG
glycan array binding signal (z-score) [1]: 10.5 | glycan array binding signal (z-score) [2]: 5.77 | glycan array binding signal (z-score) [3]: 2.36 | glycan array binding signal (z-score) [4]: -0.42 | glycan array binding signal (z-score) [5]: 1.48 | glycan array binding signal (z-score) [6]: 0.632 | glycan array binding signal (z-score) [7]: 0.663 | glycan array binding signal (z-score) [8]: 0.355 | glycan array binding signal (z-score) [9]: 2.99 | glycan array binding signal (z-score) [10]: 3.24 | glycan array binding signal (z-score) [11]: 0.19 | glycan array binding signal (z-score) [12]: -0.136 | glycan array binding signal (z-score) [13]: -0.209 | glycan array binding signal (z-score) [14]: 1.87 | glycan array binding signal (z-score) [15]: 0.684 | glycan array binding signal (z-score) [16]: 0.853 | glycan array binding signal (z-score) [17]: 0.111 | glycan array binding signal (z-score) [18]: -0.329 | glycan array binding signal (z-score) [19]: -0.46 | glycan array binding signal (z-score) [20]: -0.061 | glycan array binding signal (z-score) [21]: 0.179 | glycan array binding signal (z-score) [22]: -0.011
